From patent publication US20230322953A1 (HARBOUR BIOMED SHANGHAI, published 2023)

Tests used:
[1] = target: T1, human CTLA4 on CHO-K1/hCTLA4 cells (human, UniProt P16410 36-223); test: flow cytometry on CHO-K1/hCTLA4 cells, Experiment 2
T1 construct: whole, on cells; CHO-K1 cell line highly expressing human CTLA4; also called human CTLA4 cell

[2] = target: T2, biotinylated human CTLA4-Fc protein (ACRO Biosystems, #CT4-H82F3) (human, UniProt P16410 36-161, biotinylated); test: competition ELISA: coated human B7-1-Fc, biotinylated human CTLA4-Fc, Experiment 2
T2 construct: Bought protein; also called human CTLA4 protein

human 4-1BB = target: T3, human 4-1BB (human, UniProt Q07011 24-255); test: flow cytometry, CHO-K1/hu 4-1BB cells
T3 construct: whole, on cells; also called CD137; TNFRSF9

Chain of human 4-1BB (Q07011 24-255): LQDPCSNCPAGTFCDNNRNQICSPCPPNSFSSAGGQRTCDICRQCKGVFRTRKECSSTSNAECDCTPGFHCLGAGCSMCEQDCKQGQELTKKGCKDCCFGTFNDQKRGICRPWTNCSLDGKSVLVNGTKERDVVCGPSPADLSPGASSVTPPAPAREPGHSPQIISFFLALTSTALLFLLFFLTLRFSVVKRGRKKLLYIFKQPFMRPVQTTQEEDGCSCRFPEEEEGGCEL

Binder | EC50 [1] [nM] | Maximum MFI [1] [MFI] | IC50 [2] [nM] | EC50 (human 4-1BB) [nM] | Maximum MFI (human 4-1BB)
HER2xCTLA4 bispecific antibody molecule PR001588 (bispecific antibody, human IgG1, kappa, HER2 IgG PR000672 (pertuzumab analog), PR000184 VH at N-terminus of heavy chain; linker KL-H1_15-RT; Fc human IgG1) light: DIQMTQSPSSLSASVGDRVTITCKASQDVSIGVAWYQQKPGKAPKLLIYSASYRYTGVPSRFSGSGSGTDFTLTISSLQPEDFATYYCQQYYIYPYTFGQGTKVEIKRTVAAPSVFIFPPSDEQLKSGTASVVCLLNNFYPREAKVQWKVDNALQSGNSQESVTEQDSKDSTYSLSSTLTLSKADYEKHKVYACEVTHQGLSSPVTKSFNRGEC heavy: EVQLVESGGGLIQPGGSLRLSCAVSGFTVSKNYMSWVRQAPGKGLEWVSVVYSGGSKTYADSVKGRFTISRDNSKNTLYLQMNSLRAEDTAVYYCARAVPHSPSSFDIWGQGTMVTVSSKLEPKSSDKTHTPPPPPRTEVQLVESGGGLVQPGGSLRLSCAASGFTFTDYTMDWVRQAPGKGLEWVADVNPNSGGSIYNQRFKGRFTLSVDRSKNTLYLQMNSLRAEDTAVYYCARNLGPSFYFDYWGQGTLVTVSS[human IgG1 constant region not given here] | 7.26 | 2170 | 2.2 |  | 
PR003487 (bispecific antibody, human IgG1, kappa, PR002408 IgG with two PR001760 VH in tandem at C-terminus of heavy chain (first linker H1_15-RT, second none), human IgG1 (L234A, L235A); also called B7H4x4-1BB bispecific antibody, IgG-VH(2) hexavalent symmetric structure (7)) light: EIVMTQSPATLSVSPGERATLSCRASQSISSNLGWYQQKPGQAPRLLIYGASTRATGIPARFSGSGSGTEFTLTISSLQSEDFAVYYCQQYQSWPPLTFGGGTKVEIKRTVAAPSVFIFPPSDEQLKSGTASVVCLLNNFYPREAKVQWKVDNALQSGNSQESVTEQDSKDSTYSLSSTLTLSKADYEKHKVYACEVTHQGLSSPVTKSFNRGEC heavy: QVQLVESGGGVVQPGRSLRLSCAASGFTFRSFGMHWVRQAPGKGLEWVAVISYDASNEYYADSVKGRFIISRDNSKDTLYLQMNSLRAGDTAVYYCAKGGGLRWYFAYWGQGTLVTVSSASTKGPSVFPLAPSSKSTSGGTAALGCLVKDYFPEPVTVSWNSGALTSGVHTFPAVLQSSGLYSLSSVVTVPSSSLGTQTYICNVNHKPSNTKVDKKV[human IgG1 Fc with changes not given here]EPKSSDKTHTPPPPPRTEVQLVESGGGVVQPGGSLRLSCAASGFTFSNYAMTWVRQAPEKGLEWVSSISGSGVSTYYADSVKGRFTISRDNSKNTLYLQMTRLTAEDTAVYFCAKEGSSETDDHYYNVDVWGQGTTVTVSSEVQLVESGGGVVQPGGSLRLSCAASGFTFSNYAMTWVRQAPEKGLEWVSSISGSGVSTYYADSVKGRFTISRDNSKNTLYLQMTRLTAEDTAVYFCAKEGSSETDDHYYNVDVWGQGTTVTVSS |  |  |  | 0.755 | 95700
PR004279 (bispecific antibody, PR002408 Fab, PR001760 VH, L1 H1_15, L2 human IgG1 hinge (C220S), human IgG1 (L234A, L235A); also called B7H4x4-1BB bispecific antibody, Fab-HCAb symmetric structure (1)) chain 1: QVQLVESGGGVVQPGRSLRLSCAASGFTFRSFGMHWVRQAPGKGLEWVAVISYDASNEYYADSVKGRFIISRDNSKDTLYLQMNSLRAGDTAVYYCAKGGGLRWYFAYWGQGTLVTVSSASTKGPSVFPLAPSSKSTSGGTAALGCLVKDYFPEPVTVSWNSGALTSGVHTFPAVLQSSGLYSLSSVVTVPSSSLGTQTYICNVNHKPSNTKVDKKVEPKSC chain 2: EIVMTQSPATLSVSPGERATLSCRASQSISSNLGWYQQKPGQAPRLLIYGASTRATGIPARFSGSGSGTEFTLTISSLQSEDFAVYYCQQYQSWPPLTFGGGTKVEIKRTVAAPSVFIFPPSDEQLKSGTASVVCLLNNFYPREAKVQWKVDNALQSGNSQESVTEQDSKDSTYSLSSTLTLSKADYEKHKVYACEVTHQGLSSPVTKSFNRGECEPKSSDKTHTPPPPPEVQLVESGGGVVQPGGSLRLSCAASGFTFSNYAMTWVRQAPEKGLEWVSSISGSGVSTYYADSVKGRFTISRDNSKNTLYLQMTRLTAEDTAVYFCAKEGSSETDDHYYNVDVWGQGTTVTVSS[human IgG1 Fc with changes not given here] |  |  |  | 0.503 | 105000
PR003488 (bispecific antibody, human IgG1, kappa, PR002408 IgG with two PR001760 VH in tandem at C-terminus of heavy chain (first linker H1_15-RT, second GS_5), human IgG1 (L234A, L235A); also called B7H4x4-1BB bispecific antibody, IgG-VH(2) hexavalent symmetric structure (7)) light: EIVMTQSPATLSVSPGERATLSCRASQSISSNLGWYQQKPGQAPRLLIYGASTRATGIPARFSGSGSGTEFTLTISSLQSEDFAVYYCQQYQSWPPLTFGGGTKVEIKRTVAAPSVFIFPPSDEQLKSGTASVVCLLNNFYPREAKVQWKVDNALQSGNSQESVTEQDSKDSTYSLSSTLTLSKADYEKHKVYACEVTHQGLSSPVTKSFNRGEC heavy: QVQLVESGGGVVQPGRSLRLSCAASGFTFRSFGMHWVRQAPGKGLEWVAVISYDASNEYYADSVKGRFIISRDNSKDTLYLQMNSLRAGDTAVYYCAKGGGLRWYFAYWGQGTLVTVSSASTKGPSVFPLAPSSKSTSGGTAALGCLVKDYFPEPVTVSWNSGALTSGVHTFPAVLQSSGLYSLSSVVTVPSSSLGTQTYICNVNHKPSNTKVDKKV[human IgG1 Fc with changes not given here]EPKSSDKTHTPPPPPRTEVQLVESGGGVVQPGGSLRLSCAASGFTFSNYAMTWVRQAPEKGLEWVSSISGSGVSTYYADSVKGRFTISRDNSKNTLYLQMTRLTAEDTAVYFCAKEGSSETDDHYYNVDVWGQGTTVTVSSGGGGSEVQLVESGGGVVQPGGSLRLSCAASGFTFSNYAMTWVRQAPEKGLEWVSSISGSGVSTYYADSVKGRFTISRDNSKNTLYLQMTRLTAEDTAVYFCAKEGSSETDDHYYNVDVWGQGTTVTVSS |  |  |  | 0.773 | 98200
PR007165 (bispecific antibody, human IgG1, PR002408 Fab, PR001760 VH, no first linker, L2 human IgG1 hinge (C220S), human IgG1 (L234A, L235A); also called B7H4x4-1BB bispecific antibody, Fab-HCAb symmetric structure (2)) light: EIVMTQSPATLSVSPGERATLSCRASQSISSNLGWYQQKPGQAPRLLIYGASTRATGIPARFSGSGSGTEFTLTISSLQSEDFAVYYCQQYQSWPPLTFGGGTKVEIKRTVAAPSVFIFPPSDEQLKSGTASVVCLLNNFYPREAKVQWKVDNALQSGNSQESVTEQDSKDSTYSLSSTLTLSKADYEKHKVYACEVTHQGLSSPVTKSFNRGEC heavy: QVQLVESGGGVVQPGRSLRLSCAASGFTFRSFGMHWVRQAPGKGLEWVAVISYDASNEYYADSVKGRFIISRDNSKDTLYLQMNSLRAGDTAVYYCAKGGGLRWYFAYWGQGTLVTVSSASTKGPSVFPLAPSSKSTSGGTAALGCLVKDYFPEPVTVSWNSGALTSGVHTFPAVLQSSGLYSLSSVVTVPSSSLGTQTYICNVNHKPSNTKVDKKVEPKSCEVQLVESGGGVVQPGGSLRLSCAASGFTFSNYAMTWVRQAPEKGLEWVSSISGSGVSTYYADSVKGRFTISRDNSKNTLYLQMTRLTAEDTAVYFCAKEGSSETDDHYYNVDVWGQGTTVTVSS[human IgG1 Fc with changes not given here] |  |  |  | 4 | 71200
PR005189 (bispecific antibody, PR002408 Fab, PR001760 VH, no first linker, L2 human IgG1 hinge (C220S), human IgG1 (L234A, L235A); also called B7H4x4-1BB bispecific antibody, Fab-HCAb symmetric structure (1)) chain 1: QVQLVESGGGVVQPGRSLRLSCAASGFTFRSFGMHWVRQAPGKGLEWVAVISYDASNEYYADSVKGRFIISRDNSKDTLYLQMNSLRAGDTAVYYCAKGGGLRWYFAYWGQGTLVTVSSASTKGPSVFPLAPSSKSTSGGTAALGCLVKDYFPEPVTVSWNSGALTSGVHTFPAVLQSSGLYSLSSVVTVPSSSLGTQTYICNVNHKPSNTKVDKKVEPKSC chain 2: EIVMTQSPATLSVSPGERATLSCRASQSISSNLGWYQQKPGQAPRLLIYGASTRATGIPARFSGSGSGTEFTLTISSLQSEDFAVYYCQQYQSWPPLTFGGGTKVEIKRTVAAPSVFIFPPSDEQLKSGTASVVCLLNNFYPREAKVQWKVDNALQSGNSQESVTEQDSKDSTYSLSSTLTLSKADYEKHKVYACEVTHQGLSSPVTKSFNRGECEVQLVESGGGVVQPGGSLRLSCAASGFTFSNYAMTWVRQAPEKGLEWVSSISGSGVSTYYADSVKGRFTISRDNSKNTLYLQMTRLTAEDTAVYFCAKEGSSETDDHYYNVDVWGQGTTVTVSS[human IgG1 Fc with changes not given here] |  |  |  | 4.25 | 92400
